According to the BET-seq Pho4 binding data (Le et al. 2018):
The list shows a part of the results. These are noisy estimates, calculated here from bound and input reads.

These sequences were tested against T1, Pho4 (S. cerevisiae) (UniProt P07270) (assay: relative binding free energy (BET-seq); higher = weaker binding). Conditions: reference: library average.
T1 sequence: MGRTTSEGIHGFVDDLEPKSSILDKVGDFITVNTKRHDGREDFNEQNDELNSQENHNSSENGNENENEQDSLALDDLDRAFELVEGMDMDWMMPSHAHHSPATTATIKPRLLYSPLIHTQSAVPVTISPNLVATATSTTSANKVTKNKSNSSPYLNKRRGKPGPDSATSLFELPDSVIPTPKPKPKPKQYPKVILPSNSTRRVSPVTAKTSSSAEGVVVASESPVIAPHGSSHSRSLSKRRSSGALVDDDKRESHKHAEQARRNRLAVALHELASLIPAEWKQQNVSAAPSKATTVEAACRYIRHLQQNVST
For TTAGACACGTGAGATA, the “relative binding free energy” value was 0.17 kcal/mol.
For TGAGTCACGTGGTTCG, the “relative binding free energy” value was -0.01 kcal/mol.
In the case of TTTGGCACGTGCGGGT, the “relative binding free energy” value is reported as -0.12 kcal/mol.
For GTTGCCACGTGAGGTT, the “relative binding free energy” value was 0.22 kcal/mol.
CGGTTCACGTGAGGAT was tested, and the “relative binding free energy” value was 0.32 kcal/mol.
For TAGAGCACGTGGTGGT, the “relative binding free energy” value was -0.15 kcal/mol.
In the case of AGCGGCACGTGGAGGG, the “relative binding free energy” value is reported as -0.1 kcal/mol.
In the case of AGTAGCACGTGATAAT, the “relative binding free energy” value is reported as 0.05 kcal/mol.
With AGGGTCACGTGCACGG the “relative binding free energy” value was 0.05 kcal/mol.
For GGGTCCACGTGGGACG, the “relative binding free energy” value was -0.18 kcal/mol.
With AACGTCACGTGTTGAT the “relative binding free energy” value was 0.16 kcal/mol.
For AATGTCACGTGATGAT, the “relative binding free energy” value was 0.13 kcal/mol.
In the case of GTTGACACGTGGAAGA, the “relative binding free energy” value is reported as 0.19 kcal/mol.
With GGACTCACGTGGTTGT the “relative binding free energy” value was 0.27 kcal/mol.
AGCGTCACGTGGTGGA was tested, and the “relative binding free energy” value was 0.08 kcal/mol.
In the case of GTTTCCACGTGTGGTA, the “relative binding free energy” value is reported as 0.22 kcal/mol.
For GGTTACACGTGGCAGA, the “relative binding free energy” value was 0.09 kcal/mol.
With GTGATCACGTGTAGTT the “relative binding free energy” value was 0.09 kcal/mol.
GGTGACACGTGACGGT was tested, and the “relative binding free energy” value was 0.18 kcal/mol.
TAACTCACGTGGAGGT was tested, and the “relative binding free energy” value was 0.26 kcal/mol.
For TATTACACGTGTGAAT, the “relative binding free energy” value was 0.09 kcal/mol.
In the case of TTTTTCACGTGAATCA, the “relative binding free energy” value is reported as 0.47 kcal/mol.
With TTTTGCACGTGAAGAT the “relative binding free energy” value was 0.2 kcal/mol.
For TTATCCACGTGATATT, the “relative binding free energy” value was 0.29 kcal/mol.
For GTTCGCACGTGACGGT, the “relative binding free energy” value was 0.24 kcal/mol.
In the case of TTTGACACGTGCTCGG, the “relative binding free energy” value is reported as -0.02 kcal/mol.
In the case of GGGTGCACGTGTATTG, the “relative binding free energy” value is reported as 0.13 kcal/mol.
For CTATGCACGTGAGTGG, the “relative binding free energy” value was 0.14 kcal/mol.
CTTTGCACGTGAAGTG was tested, and the “relative binding free energy” value was 0.29 kcal/mol.
In the case of AAGGACACGTGCTGGG, the “relative binding free energy” value is reported as -0.07 kcal/mol.
In the case of GTGCTCACGTGCGAGG, the “relative binding free energy” value is reported as 0.27 kcal/mol.
With TGTTACACGTGGTGCT the “relative binding free energy” value was -0.03 kcal/mol.
AGGGACACGTGGTCAT was tested, and the “relative binding free energy” value was -0.12 kcal/mol.
For GTGGTCACGTGTTACG, the “relative binding free energy” value was 0.24 kcal/mol.
With ATTTTCACGTGACAGA the “relative binding free energy” value was 0.38 kcal/mol.
AAGCTCACGTGGTGAG was tested, and the “relative binding free energy” value was 0.23 kcal/mol.
With TTGAACACGTGGTTCA the “relative binding free energy” value was 0.05 kcal/mol.
For AATTGCACGTGGTCTT, the “relative binding free energy” value was -0.08 kcal/mol.
For GTAGGCACGTGTTTGT, the “relative binding free energy” value was -0.01 kcal/mol.
For TATTTCACGTGAAGGC, the “relative binding free energy” value was 0.24 kcal/mol.
TGACTCACGTGGGGGA was tested, and the “relative binding free energy” value was 0.04 kcal/mol.
In the case of TTTGACACGTGTATGA, the “relative binding free energy” value is reported as -0.07 kcal/mol.
In the case of GATTGCACGTGAAGGA, the “relative binding free energy” value is reported as 0.33 kcal/mol.
For GTAAGCACGTGGGACG, the “relative binding free energy” value was -0.07 kcal/mol.
In the case of CGGTTCACGTGATAGG, the “relative binding free energy” value is reported as 0.27 kcal/mol.
With ATATTCACGTGGACGG the “relative binding free energy” value was 0.3 kcal/mol.
In the case of TGTGTCACGTGGACTG, the “relative binding free energy” value is reported as 0.09 kcal/mol.
With TACTTCACGTGCTGGG the “relative binding free energy” value was 0.3 kcal/mol.
In the case of TTTAGCACGTGACGGG, the “relative binding free energy” value is reported as 0.06 kcal/mol.
CGGGTCACGTGTAGAG was tested, and the “relative binding free energy” value was 0.13 kcal/mol.
For GTAAGCACGTGATTTG, the “relative binding free energy” value was 0.24 kcal/mol.
In the case of ATGGTCACGTGGGGCT, the “relative binding free energy” value is reported as -0.05 kcal/mol.
With TTTCACACGTGGGGGC the “relative binding free energy” value was -0.08 kcal/mol.
In the case of GGGGTCACGTGGAACG, the “relative binding free energy” value is reported as 0.28 kcal/mol.
In the case of TTTCCCACGTGTATGT, the “relative binding free energy” value is reported as -0.05 kcal/mol.
GGGTGCACGTGGATTG was tested, and the “relative binding free energy” value was 0.06 kcal/mol.
In the case of AGGTACACGTGGGGCG, the “relative binding free energy” value is reported as -0.06 kcal/mol.
For TTCGTCACGTGGGCTA, the “relative binding free energy” value was 0.07 kcal/mol.
TTTGGCACGTGGGAAC was tested, and the “relative binding free energy” value was -0.22 kcal/mol.
With GTTGCCACGTGTTGTG the “relative binding free energy” value was -0.03 kcal/mol.
TTGTCCACGTGTGGGC was tested, and the “relative binding free energy” value was 0.06 kcal/mol.
With CGTGTCACGTGGTGTT the “relative binding free energy” value was 0.05 kcal/mol.
CGATACACGTGTTGTA was tested, and the “relative binding free energy” value was 0.14 kcal/mol.
GGGGTCACGTGGAAGC was tested, and the “relative binding free energy” value was 0.3 kcal/mol.
For GGGATCACGTGGGATG, the “relative binding free energy” value was 0.09 kcal/mol.
ATTTTCACGTGAGACG was tested, and the “relative binding free energy” value was 0.34 kcal/mol.
In the case of TATGTCACGTGCGCGT, the “relative binding free energy” value is reported as -0.23 kcal/mol.
AGTGCCACGTGGTATA was tested, and the “relative binding free energy” value was -0.2 kcal/mol.
For CGGTTCACGTGGTTAA, the “relative binding free energy” value was 0.15 kcal/mol.
For ACGGTCACGTGTAAGG, the “relative binding free energy” value was 0.29 kcal/mol.
In the case of GGAAACACGTGGAGAG, the “relative binding free energy” value is reported as 0.11 kcal/mol.
With CGTATCACGTGAATGT the “relative binding free energy” value was 0.3 kcal/mol.
TGTTGCACGTGTGAGA was tested, and the “relative binding free energy” value was 0 kcal/mol.
With CAATGCACGTGGGGGG the “relative binding free energy” value was -0.2 kcal/mol.
For TGGGACACGTGCGTAA, the “relative binding free energy” value was -0.07 kcal/mol.
For ACGTGCACGTGCGGGT, the “relative binding free energy” value was -0.25 kcal/mol.
With AAGTACACGTGGGCGG the “relative binding free energy” value was -0.1 kcal/mol.
With TACGCCACGTGTGGTG the “relative binding free energy” value was -0.11 kcal/mol.
TATGACACGTGGGAAA was tested, and the “relative binding free energy” value was 0.06 kcal/mol.
In the case of AAAGGCACGTGGCGGT, the “relative binding free energy” value is reported as -0.33 kcal/mol.
TCGATCACGTGTGTAG was tested, and the “relative binding free energy” value was 0.13 kcal/mol.
AGGACCACGTGGGGTA was tested, and the “relative binding free energy” value was -0.22 kcal/mol.
GGGTACACGTGAGGCT was tested, and the “relative binding free energy” value was 0.33 kcal/mol.
In the case of GCGGCCACGTGTTAGT, the “relative binding free energy” value is reported as 0.05 kcal/mol.
With ATTGACACGTGTGTGC the “relative binding free energy” value was -0.02 kcal/mol.
TAGGCCACGTGAGGTG was tested, and the “relative binding free energy” value was 0.04 kcal/mol.
For GTGAACACGTGTGATA, the “relative binding free energy” value was 0.08 kcal/mol.
For ATCGGCACGTGGTGCG, the “relative binding free energy” value was -0.31 kcal/mol.
With GATGTCACGTGTTGAT the “relative binding free energy” value was 0.24 kcal/mol.
For TTACACACGTGGGTTA, the “relative binding free energy” value was -0.17 kcal/mol.
For AGTGGCACGTGAAATA, the “relative binding free energy” value was 0.01 kcal/mol.
For GTTTTCACGTGCGGGT, the “relative binding free energy” value was 0.44 kcal/mol.
In the case of GAGTACACGTGGGGTG, the “relative binding free energy” value is reported as -0.05 kcal/mol.
For AACGTCACGTGTGGGG, the “relative binding free energy” value was 0.16 kcal/mol.
In the case of GAGGTCACGTGGGGGT, the “relative binding free energy” value is reported as 0.05 kcal/mol.
With CTAAGCACGTGTAGGG the “relative binding free energy” value was -0.22 kcal/mol.
For GGAAACACGTGGGGAA, the “relative binding free energy” value was -0.07 kcal/mol.
In the case of GCTTTCACGTGTTGGA, the “relative binding free energy” value is reported as 0.2 kcal/mol.
TTGTGCACGTGTAAGC was tested, and the “relative binding free energy” value was 0.15 kcal/mol.
In the case of TGGTTCACGTGAGAAG, the “relative binding free energy” value is reported as 0.37 kcal/mol.
TTTGTCACGTGATGTG was tested, and the “relative binding free energy” value was 0.3 kcal/mol.
For GGGCACACGTGTGTGA, the “relative binding free energy” value was 0.12 kcal/mol.
With TCTTGCACGTGTCTGT the “relative binding free energy” value was -0.08 kcal/mol.
With TTGGCCACGTGAGTAG the “relative binding free energy” value was 0.11 kcal/mol.
For AACATCACGTGGGTTG, the “relative binding free energy” value was -0.05 kcal/mol.
For AGAGACACGTGAGGGA, the “relative binding free energy” value was 0.24 kcal/mol.
With AAGTTCACGTGTGGGT the “relative binding free energy” value was 0.23 kcal/mol.
In the case of ACGGTCACGTGAAGGG, the “relative binding free energy” value is reported as 0.26 kcal/mol.
For TAGCGCACGTGGTTGA, the “relative binding free energy” value was -0.17 kcal/mol.
GTTGACACGTGGGTGG was tested, and the “relative binding free energy” value was 0.03 kcal/mol.
With ATAGACACGTGGGTGG the “relative binding free energy” value was -0.17 kcal/mol.
For TCCTTCACGTGTTTGT, the “relative binding free energy” value was 0.12 kcal/mol.
For GATCGCACGTGAGGGG, the “relative binding free energy” value was 0.2 kcal/mol.
For AGCTTCACGTGGGGGT, the “relative binding free energy” value was 0.09 kcal/mol.
TTGTACACGTGAGGAA was tested, and the “relative binding free energy” value was 0.32 kcal/mol.
GATAACACGTGATTGT was tested, and the “relative binding free energy” value was 0.3 kcal/mol.
For GGGATCACGTGGCGGG, the “relative binding free energy” value was 0.15 kcal/mol.
With TATTACACGTGGGGGA the “relative binding free energy” value was 0.04 kcal/mol.
In the case of AAGTTCACGTGAGGGC, the “relative binding free energy” value is reported as 0.38 kcal/mol.
With GGTCTCACGTGTTGCG the “relative binding free energy” value was 0.3 kcal/mol.
With GAGGGCACGTGGTCTT the “relative binding free energy” value was -0.26 kcal/mol.
For GTGGTCACGTGTACTA, the “relative binding free energy” value was 0.18 kcal/mol.
With TCGATCACGTGCGGGG the “relative binding free energy” value was 0.03 kcal/mol.
For CTCTGCACGTGTGTGG, the “relative binding free energy” value was 0.01 kcal/mol.
For GGAGGCACGTGGTGGG, the “relative binding free energy” value was -0.15 kcal/mol.
In the case of CGTTGCACGTGTTTAA, the “relative binding free energy” value is reported as 0.01 kcal/mol.
For TTTATCACGTGCTTAG, the “relative binding free energy” value was 0.13 kcal/mol.
GGTAGCACGTGCATTG was tested, and the “relative binding free energy” value was -0.09 kcal/mol.
With ATGCTCACGTGTTAGT the “relative binding free energy” value was 0.18 kcal/mol.
With AGTGTCACGTGTTTTA the “relative binding free energy” value was 0.04 kcal/mol.
For AGGTACACGTGTTGAG, the “relative binding free energy” value was 0.14 kcal/mol.
For ATATTCACGTGCGGGT, the “relative binding free energy” value was 0.16 kcal/mol.
ATGGCCACGTGGTTTG was tested, and the “relative binding free energy” value was -0.16 kcal/mol.
For GATAGCACGTGGGATG, the “relative binding free energy” value was -0.07 kcal/mol.
CGCGTCACGTGAGGGC was tested, and the “relative binding free energy” value was 0.28 kcal/mol.
For ATAGACACGTGAGTAT, the “relative binding free energy” value was 0.18 kcal/mol.
For TTTATCACGTGTGTCG, the “relative binding free energy” value was 0.18 kcal/mol.
For TATGGCACGTGGTCGA, the “relative binding free energy” value was -0.2 kcal/mol.
With CCAGACACGTGGGGGT the “relative binding free energy” value was -0.14 kcal/mol.
For TGGGGCACGTGTCAAA, the “relative binding free energy” value was -0.07 kcal/mol.
With CTAGTCACGTGTGTTA the “relative binding free energy” value was 0.01 kcal/mol.
In the case of GGGAACACGTGGATTG, the “relative binding free energy” value is reported as 0.14 kcal/mol.
For GAAGGCACGTGTGGAG, the “relative binding free energy” value was 0 kcal/mol.
ATGATCACGTGATGCT was tested, and the “relative binding free energy” value was 0.22 kcal/mol.
With TGTTACACGTGTGAAG the “relative binding free energy” value was 0.08 kcal/mol.
In the case of TCTTGCACGTGGTGAC, the “relative binding free energy” value is reported as 0.06 kcal/mol.
